The values that follow come from PMC10726135.

This is one part of the list. At the low end of the ranking the order means little. The protein was read in a cell extract, so binding may be indirect.

The assay deals with T1, HNF4alpha8 (COS-7 nuclear extract) (UniProt P41235-5).
T1 sequence: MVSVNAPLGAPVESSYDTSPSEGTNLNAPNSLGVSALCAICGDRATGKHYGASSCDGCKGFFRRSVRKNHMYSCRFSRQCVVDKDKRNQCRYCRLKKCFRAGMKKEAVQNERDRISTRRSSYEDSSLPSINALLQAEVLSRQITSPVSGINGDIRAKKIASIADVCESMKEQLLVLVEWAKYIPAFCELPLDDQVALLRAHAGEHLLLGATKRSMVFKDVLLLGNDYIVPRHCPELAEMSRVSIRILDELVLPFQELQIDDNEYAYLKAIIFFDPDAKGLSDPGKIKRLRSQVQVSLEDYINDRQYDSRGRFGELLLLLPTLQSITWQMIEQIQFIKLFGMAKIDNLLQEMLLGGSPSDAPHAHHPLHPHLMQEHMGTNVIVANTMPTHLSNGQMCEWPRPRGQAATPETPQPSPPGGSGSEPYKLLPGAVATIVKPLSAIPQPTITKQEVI
The assay is described as follows: protein-binding microarray. The settings on record: COS-7 nuclear extract on double-stranded Agilent 4x180k PBM; binding buffer, salt, pH and temperature not given; high values mean tight binding; double strand, one strand shown; sequences stand for … in …GCCTAGGGAGATTAGAGTATCGGTCGA
As for ATTAGATGATAAGGGTGAAAAGATAGCTTG, the binding signal (log2 normalized intensity) was -1.34.

CAGGATTGGAGATCTGAACTCAAGCTCTTA: the binding signal (log2 normalized intensity) was -1.18.

AGCACTGGCATGCAGCAGGGGAATGGAGAC: the binding signal (log2 normalized intensity) was -1.33.

For the sequence CCAAAGTCCAAGTTGGTGAGAACAGAGTCT, the binding signal (log2 normalized intensity) was determined as 1.2.

For the sequence AGGCTGAAGTCCAGTAGCTCAATCAAGGTT, the binding signal (log2 normalized intensity) is -0.327.

As for AACATTATGAAATCTTATCAGAAGCTTACA, the binding signal (log2 normalized intensity) is -1.29.

As to TCTGTGGATGTATGTCCAGATAACTCTTGT, the binding signal (log2 normalized intensity) was found to be 0.86.

As to TGGACAAGGAGGCTGGGCTGCATAGAAGAA, the binding signal (log2 normalized intensity) is -1.36.

Take TCTTGCCTTTGCTCCTCAAAAACATTCCCC: the binding signal (log2 normalized intensity) is 1.65.

For the sequence CTGATAAGATTCAGAACCCATTAATTTAGC, the binding signal (log2 normalized intensity) is -1.27.

Turning to TGGCTAGTGACTCAGAGCATATGTTGACCC, the binding signal (log2 normalized intensity) is 5.33.

On to CTTTCCTCCCACCTTCGAGCTTCACCTTTG, for which the binding signal (log2 normalized intensity) was found to be 1.89.

As to AGAGAGCAATCATGCACCTGCGGATAATCA, the binding signal (log2 normalized intensity) is -1.44.

Take ATTGGGGGAGGGTAGTCTATCTCATTACTA: the binding signal (log2 normalized intensity) was -1.2.

Consider AAGAACACAGTGTAGAAGGCAAGGGTCAAG, for which the binding signal (log2 normalized intensity) came to 2.65.

Regarding CTGTGCTGCCCTTTGCCCTTTGGGAAGGGG, the binding signal (log2 normalized intensity) was 6.59.

On to GACTAGACAGGCTTGTCGAGGACAGGATGG, for which the binding signal (log2 normalized intensity) is -1.23.

On to TCCTGGTCAGACTTGCCACGGAATCCCAGT, for which the binding signal (log2 normalized intensity) is -1.37.

For ACAACGCCAAGGACCGCCAAGGAAGCGATG, the binding signal (log2 normalized intensity) was -1.31.

With GTTCCGCGGTCCGCAGCGCTGGTGGCTGCA, the binding signal (log2 normalized intensity) was -1.11.

With CTGAACAGGGTCAGTGCAATCACGCCTCAA, the binding signal (log2 normalized intensity) is -1.33.

Consider CTCATGTGGTCCTAAAATTGACCTTTGATC, for which the binding signal (log2 normalized intensity) was determined as 11.

With GCCTGGCTAAAACCCTGGCCACTCCCTGAT, the binding signal (log2 normalized intensity) is -1.27.

TTGGCTAAAGTCCAAATTCCTTGGAATACA: the binding signal (log2 normalized intensity) was 3.86.

Consider ATTCCATCATCACGGTGGACATTGTCCAAG, for which the binding signal (log2 normalized intensity) amounted to 3.69.

In the case of TGACCTCTGCTTCCTGCTACAGAGCTCAGA, the binding signal (log2 normalized intensity) is -0.0974.

As to CTTGGGAAAGGAGAAGCTGGAGATAAGGAT, the binding signal (log2 normalized intensity) was -1.31.

For the sequence ATGTACATGGACTTTGAACCAAGATATGCT, the binding signal (log2 normalized intensity) came to 7.68.

As for AATAAATAACTCTAAGAAATAGGTTAAAGA, the binding signal (log2 normalized intensity) was -1.03.

For CACCGTTGGAATGTTCCAAGACCTTTGAAG, the binding signal (log2 normalized intensity) was found to be 1.91.

Take ATAAAGTGGATGGAGCAATTCAACAACTGT: the binding signal (log2 normalized intensity) is -1.12.

Take TTTAAGTAAGCCCCCTTCCCCCCTGGGCAA: the binding signal (log2 normalized intensity) is 4.69.

Turning to CACGCCCACCCTATTGATGCAAGGACAATG, the binding signal (log2 normalized intensity) is 1.99.

For the sequence ATTCAGAATAGTTAAGTAACGTGTCAGAGG, the binding signal (log2 normalized intensity) came out at 1.14.

Take CTGATCAAATTCCACACCCCCCACTCTTCA: the binding signal (log2 normalized intensity) is 4.44.

With GTGCTAGCTCCGACTCAGTGGGGGGGGGGG, the binding signal (log2 normalized intensity) was -1.47.

With CAAAAGTTCAAACTTTATTTGATGATGAAG, the binding signal (log2 normalized intensity) was determined as 0.503.

Consider CTGATAGCGAGTTATCTGCATTCCAGCTCA, for which the binding signal (log2 normalized intensity) is -1.4.

In the case of GGAGGAGAGAAGGGCTGAAGGTTAATTCGC, the binding signal (log2 normalized intensity) turned out to be 0.88.

Take GCCGGGTCACGTGGGTCCAGGGTCACGTGC: the binding signal (log2 normalized intensity) came out at 3.37.

Turning to ATGTTTCAAGTGGCCTGATTTGACAAGGCA, the binding signal (log2 normalized intensity) was 0.063.

On to TAAAACAGTCCATTTCAGTGAACTTTTCAA, for which the binding signal (log2 normalized intensity) was determined as 1.75.

For the sequence AATGCTGTTAGCACTCAGTCATTGCCATCT, the binding signal (log2 normalized intensity) was -1.25.

Take GATACAGATAAATAAATCAAGATCACTGCC: the binding signal (log2 normalized intensity) is -1.39.

As for CCTATAGCCTCACTTGCTGATAAGGCAGAC, the binding signal (log2 normalized intensity) was -1.29.

Take TCTGCGCAGGGAGGAGCGCATCGGGCGCCA: the binding signal (log2 normalized intensity) was -1.35.

CTAGGAGATACGCCTGAACTTTGATCAGCA: the binding signal (log2 normalized intensity) turned out to be 6.55.

As to GGAATGCCCTTATCTCCCAGCCACCAAATC, the binding signal (log2 normalized intensity) was determined as 2.58.

For the sequence GACCAACAGAGAAGGCCCTGAACTCCCAGC, the binding signal (log2 normalized intensity) is -1.39.

In the case of GGGAAAACTGATAAAGGGTGAGTGCATGAA, the binding signal (log2 normalized intensity) is -1.29.

For GAAGGAATGTAAACTCCAAGGAGCAAATCC, the binding signal (log2 normalized intensity) was -1.35.

Consider CGACCTTTGCTCCCGACTCTGAGGCTCCAT, for which the binding signal (log2 normalized intensity) came out at 5.96.

In the case of GATAAAGGGTTACAAACTTCAAGGTCCATT, the binding signal (log2 normalized intensity) is 2.32.

Regarding GGGGCCTTTAGCACCTTCATCCAAAGATGA, the binding signal (log2 normalized intensity) is -1.32.

In the case of GGCCAGGCCAAATCAGAACTGAGTTACTTG, the binding signal (log2 normalized intensity) was -1.35.

As for TTGACTCAGTTGCAGAAAAACAGGTTCTGC, the binding signal (log2 normalized intensity) is -1.2.

As to ATCCAGCAGACTTAGACCCTGACCTGGCAT, the binding signal (log2 normalized intensity) was determined as 2.51.

As for GGTCAAGCCCAACCAAAGTAGAGGAATGCT, the binding signal (log2 normalized intensity) was -1.27.

For GGCTTTATGACCAGTGTGTTGTGCTGACCT, the binding signal (log2 normalized intensity) amounted to 3.74.

As to CCAAAGTCCATGTTCATAACTGTTAAACTC, the binding signal (log2 normalized intensity) was found to be 1.98.

For GGCTGATATCTCTCTGGCTGGTGGGCAAGT, the binding signal (log2 normalized intensity) came to 0.457.

Take CTATGTGGTTTTGTAAATATAGGATCATGT: the binding signal (log2 normalized intensity) is 1.66.

On to AGATTCCTCTGAGTCCTCTTCCCAACTTGG, for which the binding signal (log2 normalized intensity) is -1.18.

Regarding CAAATCCAGGATCAAATACAGAATCAATGC, the binding signal (log2 normalized intensity) was -1.3.

With GCCCTCTTGGTATCAGCTTTGAGACACCTG, the binding signal (log2 normalized intensity) is -0.0925.

For the sequence AAAAGCAAACCAAAAAGTTGGTTGGAGCTA, the binding signal (log2 normalized intensity) is -1.16.

As for GCAGCTCAGACTGCTTCTCTGCTGGGGCCC, the binding signal (log2 normalized intensity) was -1.34.

Turning to GTCATTAATTAACTTGTGTTCAGAGCTTGC, the binding signal (log2 normalized intensity) turned out to be 0.859.

On to ATGGGAACATTCCTCAGGGAATTTCTAGGT, for which the binding signal (log2 normalized intensity) was -1.39.

As for TGATAAGATTTATCTCTCCAAGGTACTGTG, the binding signal (log2 normalized intensity) worked out at 0.189.

With CAACCCACTGTTGCCCCTTCCAAAGTCCAC, the binding signal (log2 normalized intensity) came to 6.39.

Take ATGAGGCAAAGGTCAGGAGTTCCATTTAGC: the binding signal (log2 normalized intensity) came to 3.92.

For AGGAGACCGAGCAGCTCTTTACAAAGCCCA, the binding signal (log2 normalized intensity) was -1.26.

In the case of GAGTCCACGTACTTAACTACTACACTAAAA, the binding signal (log2 normalized intensity) is -1.04.

For CTGCAGCTGAGTAGAGGAAAGATAACTAAA, the binding signal (log2 normalized intensity) was -1.28.

Turning to CTCTGCGCCCTTGGAATATCCTGCCTAACA, the binding signal (log2 normalized intensity) was -1.23.

For the sequence AGCAGAACCCAGGGTCACAAGGATCCCATT, the binding signal (log2 normalized intensity) is -1.39.

As to TGTCAACAGCTCAAGTTATCTGAAGCTCTC, the binding signal (log2 normalized intensity) is -1.3.

On to GGGGCAATAACCCTAGACACCGGGTGAAGG, for which the binding signal (log2 normalized intensity) is -1.34.

For the sequence ACATCTTTAATTATCATCTCTGTGTATAAG, the binding signal (log2 normalized intensity) is 1.66.

For TCCAAGGTCACACAGCTAAGAGCCGCAGAG, the binding signal (log2 normalized intensity) was -1.3.

For the sequence TCCAGGGAACTGTCCACCAAGGAGGTGCTG, the binding signal (log2 normalized intensity) is -1.35.

For the sequence CGCAGCACACTGCAGCGGCATTCTCTGGTC, the binding signal (log2 normalized intensity) was -1.31.

CTTTTGGCCAGAGTAAGGCGGTTCTTGTCT: the binding signal (log2 normalized intensity) came out at 0.56.

Regarding ACACCAGGCCCTCGGCATCATGCCCTTTGG, the binding signal (log2 normalized intensity) worked out at 4.63.

Turning to ACATTCAGATTCCTGAGCCCAGATCCTCTA, the binding signal (log2 normalized intensity) is -1.36.

TCCCTTTAGTGGAGTATAGGAACATGAACT: the binding signal (log2 normalized intensity) came out at 2.03.

Regarding GCTCTAGATCTCAAAGTCCAAATAGCGCTA, the binding signal (log2 normalized intensity) stood at 3.83.

As to GGGGCGGTTTTTCCATTGTACTCAGTATGT, the binding signal (log2 normalized intensity) was 1.93.

As to TGCGGTGAGCATTTGTTTAGGAATTTATCT, the binding signal (log2 normalized intensity) is -0.414.

Turning to ATCTCCCAGTTCTTTTGACCTTTGCCTCAT, the binding signal (log2 normalized intensity) came to 8.61.

Take CAAGGCAAGAGAGTCATAAAGGGCAGGAAC: the binding signal (log2 normalized intensity) is -1.35.

Take GTATGAGATAAGGCTAGTAACACTCACATT: the binding signal (log2 normalized intensity) is -1.33.
